Laboratory results from the supplement of paper PMC12067230.
This is a noisy data set.

Assay: amyloid nucleation score relative to library mode (yeast Sup35 reporter selection) (log enrichment difference); higher = more amyloid nucleation; sequences are the first 22 residues of the Bri2 peptide extended by up to 12 random residues
Details: random library (experiment): 2;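 active = nucleation score significantly above 0 at FDR 0.05; inactive = not significantly above 0 or absent from output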
Description: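 Random C-terminal extensions of the 22-aa Bri2 peptide by 12 NNK codons; premature stops give shorter extensions. Peptides were fused to the Sup35 nucleation domain in S. cerevisiae [psi-pin-] and selected on -ADE-URA plates for 7 d at 30 °C. The nucleation score is log(output/input), centred to the mode of each of 3 independent libraries (1 input, 3 technical output replicates), with duplicates merged. Sequences absent from the output ('random_non_nuc') were imputed with the library mode value, so they are given as censored (<). Nucleators are scores significantly >0 at FDR 0.05.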
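Note: [psi-pin-] Saccharomyces cerevisiae expressing SupN fusions, induced by 100 µM Cu2SO4, selected 7 d at 30 °C without adenine and uracil, scored by deep sequencing of output versus input.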

**Q.** For EASNCFAIRHFENKFAVETLICHMVINYCVPERL, which amyloid nucleation score is on record?
**A.** 8.13

**Q.** Which amyloid nucleation score does the source give for EASNCFAIRHFENKFAVETLICNMKFARYGESRA here?
**A.** inactive

**Q.** With EASNCFAIRHFENKFAVETLICLYHCDKSSFRSM as the sequence, how does the amyloid nucleation score read?
**A.** 4.29

**Q.** Which amyloid nucleation score does the source give for EASNCFAIRHFENKFAVETLICQLFSLICVVKVG here?
**A.** 4.96

**Q.** For EASNCFAIRHFENKFAVETLICRGLD, which amyloid nucleation score is on record?
**A.** inactive

**Q.** With EASNCFAIRHFENKFAVETLICLDITRHMYSSYR as the sequence, how does the amyloid nucleation score read?
**A.** 4.91

**Q.** For EASNCFAIRHFENKFAVETLICADVSYALFCCMN, which amyloid nucleation score is on record?
**A.** 8.7

**Q.** Which amyloid nucleation score does the source give for EASNCFAIRHFENKFAVETLICQMFYGV here?
**A.** 6.77

**Q.** Which amyloid nucleation score does the source give for EASNCFAIRHFENKFAVETLICGHLLVWMVHGRV here?
**A.** inactive

**Q.** With EASNCFAIRHFENKFAVETLICCVMCIKSCRWLS as the sequence, how does the amyloid nucleation score read?
**A.** inactive

**Q.** Which amyloid nucleation score does the source give for EASNCFAIRHFENKFAVETLICLVLFVCFRMV here?
**A.** inactive

**Q.** Which amyloid nucleation score does the source give for EASNCFAIRHFENKFAVETLICMVSKSEDRNYMQ here?
**A.** 3.94

**Q.** Which amyloid nucleation score does the source give for EASNCFAIRHFENKFAVETLICVRNFYEDRLCMA here?
**A.** inactive

**Q.** Which amyloid nucleation score does the source give for EASNCFAIRHFENKFAVETLICVPVLSFLFVVHP here?
**A.** 1.26

**Q.** With EASNCFAIRHFENKFAVETLICLRVWY as the sequence, how does the amyloid nucleation score read?
**A.** inactive

**Q.** With EASNCFAIRHFENKFAVETLICRSRVVNRSAYWE as the sequence, how does the amyloid nucleation score read?
**A.** 4.35

**Q.** With EASNCFAIRHFENKFAVETLICLNEV as the sequence, how does the amyloid nucleation score read?
**A.** inactive

**Q.** For EASNCFAIRHFENKFAVETLICYRKTLPGLVCVS, which amyloid nucleation score is on record?
**A.** inactive

**Q.** With EASNCFAIRHFENKFAVETLICLVKTFFTYRLTE as the sequence, how does the amyloid nucleation score read?
**A.** inactive

**Q.** With EASNCFAIRHFENKFAVETLICVCCIYFFVYGFR as the sequence, how does the amyloid nucleation score read?
**A.** 6.41

**Q.** Which amyloid nucleation score does the source give for EASNCFAIRHFENKFAVETLICHCFMDAGNGVAM here?
**A.** 8.96

**Q.** Which amyloid nucleation score does the source give for EASNCFAIRHFENKFAVETLICTPHWQYGSLGIL here?
**A.** inactive

**Q.** With EASNCFAIRHFENKFAVETLICDCDVELLMATYW as the sequence, how does the amyloid nucleation score read?
**A.** -0.231

**Q.** With EASNCFAIRHFENKFAVETLICFTYACRFNIYPF as the sequence, how does the amyloid nucleation score read?
**A.** 3.67

**Q.** For EASNCFAIRHFENKFAVETLICFFVFNTFSFLH, which amyloid nucleation score is on record?
**A.** inactive

**Q.** Which amyloid nucleation score does the source give for EASNCFAIRHFENKFAVETLICLFSSVIWFCGTT here?
**A.** inactive

**Q.** For EASNCFAIRHFENKFAVETLICAVWESKAYPMCL, which amyloid nucleation score is on record?
**A.** inactive

**Q.** For EASNCFAIRHFENKFAVETLICCSSAMCNPFSRA, which amyloid nucleation score is on record?
**A.** 8.51

**Q.** For EASNCFAIRHFENKFAVETLICQRIDSCRLDISE, which amyloid nucleation score is on record?
**A.** 1.39

**Q.** Which amyloid nucleation score does the source give for EASNCFAIRHFENKFAVETLICEKVYPVFSFLLG here?
**A.** 5.46

**Q.** With EASNCFAIRHFENKFAVETLICCTLITNCFALCL as the sequence, how does the amyloid nucleation score read?
**A.** 6.4

**Q.** For EASNCFAIRHFENKFAVETLICWACRA, which amyloid nucleation score is on record?
**A.** 4.95

Same assay, conditions: random library (experiment): 3

**Q.** Which amyloid nucleation score does the source give for EASNCFAIRHFENKFAVETLICVQFMALVMHHSR here?
**A.** inactive

**Q.** With EASNCFAIRHFENKFAVETLICPHVRISLDWIGW as the sequence, how does the amyloid nucleation score read?
**A.** 0.788

**Q.** With EASNCFAIRHFENKFAVETLICIESSIVLILEVR as the sequence, how does the amyloid nucleation score read?
**A.** inactive

**Q.** With EASNCFAIRHFENKFAVETLICLLSDNH as the sequence, how does the amyloid nucleation score read?
**A.** 4.95

**Q.** For EASNCFAIRHFENKFAVETLICLVWV, which amyloid nucleation score is on record?
**A.** inactive

**Q.** For EASNCFAIRHFENKFAVETLICLAASKMRSHKHA, which amyloid nucleation score is on record?
**A.** inactive

**Q.** Which amyloid nucleation score does the source give for EASNCFAIRHFENKFAVETLICMSCRHVK here?
**A.** 1.89

**Q.** For EASNCFAIRHFENKFAVETLICMCGSW, which amyloid nucleation score is on record?
**A.** 7.14

**Q.** With EASNCFAIRHFENKFAVETLICEWVESGRLFREL as the sequence, how does the amyloid nucleation score read?
**A.** inactive

**Q.** For EASNCFAIRHFENKFAVETLICKFRNVARWESQA, which amyloid nucleation score is on record?
**A.** 3.11

**Q.** For EASNCFAIRHFENKFAVETLICLHVAMQPKGAKS, which amyloid nucleation score is on record?
**A.** inactive

**Q.** Which amyloid nucleation score does the source give for EASNCFAIRHFENKFAVETLICWMNDVLVSILST here?
**A.** inactive

**Q.** With EASNCFAIRHFENKFAVETLICRFDGVSTGFSAS as the sequence, how does the amyloid nucleation score read?
**A.** inactive

**Q.** For EASNCFAIRHFENKFAVETLICFARMIKS, which amyloid nucleation score is on record?
**A.** inactive

**Q.** With EASNCFAIRHFENKFAVETLICCTSCVKGNGS as the sequence, how does the amyloid nucleation score read?
**A.** 6.91

**Q.** Which amyloid nucleation score does the source give for EASNCFAIRHFENKFAVETLICLLICIDGISLWA here?
**A.** inactive

**Q.** Which amyloid nucleation score does the source give for EASNCFAIRHFENKFAVETLICVCRYCITASWVV here?
**A.** inactive

**Q.** With EASNCFAIRHFENKFAVETLICLSYTRVN as the sequence, how does the amyloid nucleation score read?
**A.** inactive

**Q.** With EASNCFAIRHFENKFAVETLICTQLNLMNGSGFE as the sequence, how does the amyloid nucleation score read?
**A.** 9.25

**Q.** For EASNCFAIRHFENKFAVETLICMLGRLGPVLGRR, which amyloid nucleation score is on record?
**A.** inactive

**Q.** Which amyloid nucleation score does the source give for EASNCFAIRHFENKFAVETLICPPWWH here?
**A.** 7.41

**Q.** With EASNCFAIRHFENKFAVETLICTYVSACPFVSMY as the sequence, how does the amyloid nucleation score read?
**A.** inactive

**Q.** With EASNCFAIRHFENKFAVETLICVFRQLWVRMLMR as the sequence, how does the amyloid nucleation score read?
**A.** 1.2

**Q.** With EASNCFAIRHFENKFAVETLICPSKTVDSGVSGV as the sequence, how does the amyloid nucleation score read?
**A.** inactive

**Q.** For EASNCFAIRHFENKFAVETLICLLVGIMGGRSRE, which amyloid nucleation score is on record?
**A.** inactive

**Q.** With EASNCFAIRHFENKFAVETLICGHWDYAA as the sequence, how does the amyloid nucleation score read?
**A.** inactive
